From PubChem BioAssay AID759 (NMMLSC, 2007)
Out of some 190,000 compounds screened, about 270 (0.14%) were called active. The shares of active, inactive and inconclusive entries below differ from those in the screen.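 Rule for the calls: active = GTP binding activity at least 20% away from the 100% baseline, either lowered as inhibitor or raised as activator; inconclusive = flagged as likely green fluorescent, judged across all proteins in the well; inactive = the rest.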

Target: GTPase HRas (Homo sapiens) (UniProt P01112)
Test: HRas wt fluorescent GTP binding changes, either direction – biochemical, wildtype, bead-based flow cytometry, multiplex, primary screen (AID 759);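 note: 0% = unlabeled GTP competition control and 100% = no-compound control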
Conditions: GST-Ras wt beads, Bodipy-FL-GTP binding, at 10 µM, actives lie on both sides

Sequence of UniProt P01112 (P01112 whole entry, looked up): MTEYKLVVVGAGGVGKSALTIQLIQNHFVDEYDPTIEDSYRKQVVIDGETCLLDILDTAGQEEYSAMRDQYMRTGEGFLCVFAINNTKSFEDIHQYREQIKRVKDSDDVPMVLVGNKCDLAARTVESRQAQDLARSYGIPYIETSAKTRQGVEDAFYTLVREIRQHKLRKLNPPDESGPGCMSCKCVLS

Structure (SMILES) | GTP binding activity
CCC(C)NS(=O)(=O)c1ccc(OCC(=O)NCc2ccccn2)cc1 (centres undefined) | inconclusive: 94%
Cc1ccc2oc(=O)c3cc(C(=O)Nc4cc(-c5cccc(F)c5)no4)sc3c2c1 | inactive: 98%
CC(=O)c1cn(CC(=O)NCC2CCCO2)c2ccccc12 (centres undefined) | inconclusive: 97%
S=C(Cc1ccc(Cl)cc1)N1CCOCC1 | inactive: 94%
COc1ccc(-n2c(C)cc(C(=O)Cn3nc(C(=O)O)c4ccccc4c3=O)c2C)cc1 | inactive: 88%
COc1ccc(C2=Nc3cccc4cccc(c34)N2)cc1 | inconclusive: 105%
CCCCCSc1nc2c(cnn2-c2ccccc2)c(=O)[nH]1 | inconclusive: 96%
COc1ccc(C(=O)Nn2c(SCC(=O)c3ccccc3)nc3ccccc3c2=O)cc1 | inconclusive: 77%
COc1cc(/C=N/Nc2nnc3c(n2)[nH]c2ccccc23)ccc1O | inactive: 83%
CCOc1ccccc1C(=O)Nc1cccc(-c2ccc3nncn3n2)c1 | active: 78%
Cc1ccc(CCNC(=O)CN(C)S(=O)(=O)c2cnc[nH]2)cc1 | inconclusive: 104%
CCc1nnc(NC(=O)CSc2nnc3c4ccccc4n(C)c3n2)s1 | inconclusive: 87%
CCOC(=O)c1cncc(C(=O)O)c1 | inactive: 106%
CC(=O)NC(CC(=O)Nc1ccc(S(=O)(=O)N2CCCC2)cc1)c1ccccc1 (centres undefined) | inconclusive: 107%
CC(C)CC1=NN(C(=O)c2ccncc2)C(O)(C(F)(F)F)C1 (centres undefined) | inactive: 100%
COc1ccc([C@@H]2Sc3cc(OC)ccc3N(CCN(C(C)C)C(C)C)C(=O)[C@H]2OC(C)=O)cc1 | inconclusive: 102%
COc1ccc(NC(=O)Cc2nnc(N)s2)cc1 | inconclusive: 88%
COc1ccc(CN(CC2CCC(C(=O)O)CC2)C(=S)Nc2cccc(C)c2)cc1 (centres undefined) | inactive: 95%
Cc1cc(C(=O)OCC(=O)Nc2cc(S(=O)(=O)N(C)C)ccc2Cl)c2ccccc2n1 | inconclusive: 97%
CCC(C)NC(=O)Cn1nc(C(F)(F)F)c2c1CCC2 (centres undefined) | inactive: 100%
C(=N/N1CCN(c2ccccc2)CC1)/c1ccncc1 | inactive: 95%
CCOc1cc(S(=O)(=O)N2CCN(Cc3ccccc3)CC2)ccc1Br | inconclusive: 91%
O=C(CCSc1ccccn1)Nc1ccc(Br)cc1 | inactive: 99%
CN1CCN(S(=O)(=O)c2cccc(C(=O)Nc3sc4c(c3C(N)=O)CCCC4)c2)CC1 | inactive: 80%

Structure (SMILES) | GTP binding activity
CC(C)C(=O)NC(C)C(c1cccs1)N1CCN(C)CC1 (centres undefined) | inconclusive: 102%
CN(C)CC(C)(C)CNS(=O)(=O)c1ccc(OC(F)(F)F)cc1 | inactive: 97%
Cc1nn(CC(O)COc2ccc3c(c2)CCC3)c(C)c1Br (centres undefined) | inconclusive: 105%
O=C(O)c1ccccc1OCc1ccccc1Br | active: 122% [activator]
CCOc1nc(-c2ccncc2)nc2ccccc12 | inconclusive: 105%
CCOC(=O)c1c(C)nc2c(c1-c1ccccc1)C(=O)CCC2 | inconclusive: 97%
COc1ccc(CCC(C)NCC2CCCCC2)cc1 (centres undefined) | inconclusive: 102%
Cc1ccc(-n2c(SCc3cc(=O)n4ccsc4n3)nnc2-c2cccnc2)c(C)c1 | inactive: 109%
CN(c1ccc([N+](=O)[O-])cc1C(N)=O)C1CCCCC1 | inactive: 94%
CC(C)(C)CC(=O)NC(=S)NCc1ccco1 | inactive: 103%
CCOC(=O)N1CCN(C(=O)CSCc2ccccc2Cl)CC1 | inactive: 99%
CCc1c(C)sc(NC(=O)CC#N)c1C#N | inconclusive: 89%
CCN(CC)S(=O)(=O)c1cc(C(=O)Nc2cc(Cl)ccc2N2CCN(C)CC2)ccc1Cl | inconclusive: 102%
Cc1nn(-c2ccccc2)c(Cl)c1C1C(C#N)=C(N)OC2=C1C(=O)CCC2 (centres undefined) | inconclusive: 104%
Clc1ccc2c(N/N=C/c3ccccc3Br)ccnc2c1 | inconclusive: 104%
COc1ccc(Nc2nnc(SCC(=O)N3CC(=O)Nc4ccccc43)s2)cc1 | inconclusive: 92%
Nc1nonc1C(=O)NCCN=Cc1cc(Cc2ccccc2)cc(Br)c1O | inactive: 117%
CCCOc1ccc(N2C(=O)CC(SCc3nc4ccccc4[nH]3)C2=O)cc1 (centres undefined) | inactive: 100%
CCOc1cc(C(=O)NC)cc(Br)c1OCc1ccccc1 | inconclusive: 93%
O=[N+]([O-])c1ccccc1/C=N/N1CCN(c2ccncc2S(=O)(=O)N2CCCCC2)CC1 | inactive: 101%
C=CCn1c(C)cc(C(=O)Cn2nc(C(=O)O)c3ccccc3c2=O)c1C | inconclusive: 97%
C#CC1CN(Cc2ccccc2)CC(C#C)N1C (centres undefined) | inconclusive: 106%
CC1(C(=O)NCc2ccc(Cl)c(Cl)c2)Oc2ccccc2NC1=O (centres undefined) | inactive: 94%
Oc1ccc2ccccc2c1/C=N/Nc1nnc(-c2ncc[nH]2)c2ccccc12 | inconclusive: 70%

Structure (SMILES) | GTP binding activity
Cc1cccn2c(=O)c(C=NCCO)c(Nc3ccc(Cl)cc3)nc12 | inconclusive: 93%
CCOC(=O)N1CCN(C(=O)c2ccc(CS(=O)(=O)c3ccccc3OC)o2)CC1 | inconclusive: 95%
COC(=O)C1=C(C)OC(N)=C(C#N)C1C1CCCCC1 (centres undefined) | inactive: 103%
C(=N\Nc1nc2ccccc2s1)/c1ccco1 | inconclusive: 103%
CCOc1ccc(C(=O)NC2CCN(C(=S)NCc3ccco3)CC2)cc1 | inconclusive: 89%
CC(=O)NC1C(=O)N(CC(C)C)c2ccccc21 (centres undefined) | inconclusive: 104%
CCc1cccc(C)c1NC(=O)CO/N=C(\N)CC(=O)NC1CCCCC1 | inconclusive: 104%
COc1ccccc1NS(=O)(=O)c1ccc(NC(=O)CCNC(=O)c2ccco2)cc1 | inactive: 100%
CCOC(=O)CN(C(=O)CSc1nnc2c(n1)[nH]c1ccc(OC)cc12)c1ccc(F)cc1 | inconclusive: 81%
Nc1ccc(S(=O)(=O)Nc2nccc(/C=C/c3ccc(Br)s3)n2)cc1 | inactive: 91%
O=C(NN1C(=O)C2C3CCC(O3)C2C1=O)c1ccco1 (centres undefined) | inactive: 102%
CCCCNC(=S)Nc1ccc2[nH]c(=O)[nH]c2c1 | inactive: 95%
CCCn1c(SCC(=O)N2CCCC(C)C2)nnc1-c1ccccn1 (centres undefined) | inactive: 97%
CCCc1cc(NCC2CCCO2)n2c(nc3ccccc32)c1C#N (centres undefined) | inactive: 97%
CCOC(=O)c1sc(N)c(C(N)=O)c1C | inconclusive: 93%
CCCCC1(CC)C(=O)NC(=O)NC1=Nc1ccc(OC)cc1 (centres undefined) | inconclusive: 107%
O=C(Nc1ccc([N+](=O)[O-])cc1Br)c1cccnc1 | inconclusive: 98%
CCCN1C(=O)/C(=C/c2ccc(C)o2)SC1=Nc1ccc(OCC)cc1 | inconclusive: 105%
CCN(CC)S(=O)(=O)c1ccc(NC(=S)NC(=O)CC(C)C)cc1 | inconclusive: 97%
COc1ccc(CN2C(=O)NC3(CCCC3)C2=O)cc1F | inconclusive: 97%
O=C(CN1CCN(c2ccc(F)cc2)CC1)Nc1cccc(C(F)(F)F)c1 | inconclusive: 97%
CCC(=O)NC(=S)Nc1cccc(NC(=O)c2ccco2)c1 | inconclusive: 93%
COc1cc(S(=O)(=O)Nc2ncccc2C)c(OC)cc1Cl | inconclusive: 104%
O=C(CCN1C(=O)COc2ccccc21)NCc1cccs1 | inconclusive: 95%

Structure (SMILES) | GTP binding activity
CCCCCn1nc(C(=O)OCC(=O)c2c(N)n(C)c(=O)n(C)c2=O)c2ccccc2c1=O | inconclusive: 75%
COCCCNC(=S)N1CCCC(c2nc3cc(C)c(C)cc3[nH]2)C1 (centres undefined) | inactive: 95%
Cc1ccc(CN2C(=O)CCC2C(=O)NC(C)C)cc1 (centres undefined) | inconclusive: 101%
COc1cc(NC(=O)CN2C(=O)NC(C)(c3ccc4ccccc4c3)C2=O)c(C)cc1[N+](=O)[O-] (centres undefined) | inactive: 94%
COc1c(C(=O)Nc2c(C)n(C)n(-c3ccccc3)c2=O)ccc2ccccc12 | inconclusive: 105%
O=C(CN1C(=O)CCC1=O)NCC12CC3CC(CC(C3)C1)C2 | inconclusive: 93%
CSCC[C@H](NC(=O)Nc1ccc(C)cc1C)C(=O)O | inconclusive: 102%
COc1cc(C(=O)N2C(=O)c3cccc(N)c3C2=O)cc(OC)c1OC | inactive: 95%
COC(=O)c1cc(OC)c(OC)cc1NC(=O)c1ccc(C)o1 | inconclusive: 84%
CC1CN(C(=O)Cc2ccc(-c3ccccc3)cc2)CC(C)O1 (centres undefined) | inactive: 97%
Cc1cc(C(=O)NNC(=O)CCCCC(=O)NNC(=O)c2cc(C)[nH]n2)n[nH]1 | inconclusive: 95%
COC(=O)c1ccc(CSc2nnc(NC(=O)C3CC(=O)N(c4ccc5c(c4)OCCO5)C3)s2)cc1 (centres undefined) | inactive: 100%
O=[N+]([O-])c1ccc(S(=O)(=O)NCCN2CCOCC2)cc1 | inconclusive: 101%
CCCCn1nnc(NC(=O)c2ccc(-c3cccc([N+](=O)[O-])c3)o2)n1 | inconclusive: 91%
C#CCN1C(=O)C(O)(CC(=O)c2cc(OC)ccc2OC)c2ccccc21 (centres undefined) | inconclusive: 107%
COc1c(C)cc(Br)cc1C(=O)Nc1cccc(-c2nc3ncccc3o2)c1 | inconclusive: 84%
CC(C)NC(=O)C(OC(=O)c1ccccc1)C(OC(=O)c1ccccc1)C(=O)O (centres undefined) | inconclusive: 106%
O=c1cc(CSc2nc3ccccc3c(=O)[nH]2)c2ccc(O)cc2o1 | inactive: 89%
Cc1nc2ccccc2c(=O)n1CCN1CCOCC1 | inconclusive: 105%
O=C(CSc1nc(-c2ccccc2)nc2c1Cc1ccccc1O2)Nc1ccc(C(=O)O)cc1 | inconclusive: 94%
C=CCn1c(=O)n2ncnc2c2c3c(sc21)CCCC3 | inconclusive: 90%
CCOc1ccc(NC(=O)CNC(=O)c2cccs2)cc1 | inactive: 97%
